Residue numbers refer to the chain shown, from its start. The list shows a part of the results.
T1: RBFOX1 RRM (Homo sapiens, UniProt Q9NWB1 109-208)
T1 sequence: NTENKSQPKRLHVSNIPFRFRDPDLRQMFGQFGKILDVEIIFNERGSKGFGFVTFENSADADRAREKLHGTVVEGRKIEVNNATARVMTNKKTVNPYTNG

B1: UAGGGCA (DNA:RNA)
RNA: GGGAGACCGGAAUUCAGAUUGUCCUAGGGCAUUAAAUCCCGUCGUAGCCACCA
DNA 1: CAATCTGAATTCCGGTCTCCC
DNA 2: TGGTGGCTACGACGGGATT
B2: GGUAAUC (DNA:RNA)
RNA: GGGAGACCGGAAUUCAGAUUGUCCGGUAAUCUUAAAUCCCGUCGUAGCCACCA
DNA 1: CAATCTGAATTCCGGTCTCCC
DNA 2: TGGTGGCTACGACGGGATT
B3: GUAACCG (DNA:RNA)
RNA: B2 RNA with G26U, U27A, A29C, U30C, C31G
DNA 1: CAATCTGAATTCCGGTCTCCC
DNA 2: TGGTGGCTACGACGGGATT
B4: AACCAAG (DNA:RNA)
RNA: B2 RNA with G25A, G26A, U27C, A28C, U30A, C31G
DNA 1: CAATCTGAATTCCGGTCTCCC
DNA 2: TGGTGGCTACGACGGGATT
B5: ACUGUUA (DNA:RNA)
RNA: B2 RNA with G25A, G26C, A28G, A29U, C31A
DNA 1: CAATCTGAATTCCGGTCTCCC
DNA 2: TGGTGGCTACGACGGGATT
B6: UUUCGAC (DNA:RNA)
RNA: B2 RNA with G25U, G26U, A28C, A29G, U30A
DNA 1: CAATCTGAATTCCGGTCTCCC
DNA 2: TGGTGGCTACGACGGGATT
B7: CUGUAAG (DNA:RNA)
RNA: B2 RNA with G25C, G26U, U27G, A28U, U30A, C31G
DNA 1: CAATCTGAATTCCGGTCTCCC
DNA 2: TGGTGGCTACGACGGGATT
B8: GGUCAUG (DNA:RNA)
RNA: B2 RNA with A28C, C31G
DNA 1: CAATCTGAATTCCGGTCTCCC
DNA 2: TGGTGGCTACGACGGGATT
B9: GGCUGCG (DNA:RNA)
RNA: B2 RNA with U27C, A28U, A29G, U30C, C31G
DNA 1: CAATCTGAATTCCGGTCTCCC
DNA 2: TGGTGGCTACGACGGGATT

Molecular target: T1, RBFOX1 RRM
Experiment: EMSA; HiTS-Eq, 1 nM pool, 10 min; buffer printed only for the single-RNA assays: 10 mM Tris pH 7.5, 150 mM NaCl, 3.4 mM EDTA, 0.001% NP-40, 30 C
Details: tags: His6 N-terminal (pET28a); label: 5' 32P
Summary of the method: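 Purified RbFox RRM, wild type or mutant, was incubated for 10 min in 50 µL with 1 nM of a 5′-radiolabelled RNA pool carrying 7 randomized nucleotides, whose flanks were annealed to DNA oligonucleotides, over a series of increasing protein concentrations. Unbound RNA was resolved on 8% native PAGE, cut out, reverse-transcribed, barcoded by PCR and sequenced on an Illumina HiSeq 2500. Relative association constants were derived from changes in read counts for each RNA species versus the control reaction and normalised to the cognate motif.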

| Binder | binding signal |
| --- | --- |
| B1 | 0.0071 KA relative to UGCAUGU |
| B2 | 0.0076 KA relative to UGCAUGU |
| B3 | 0.00469 KA relative to UGCAUGU |
| B4 | 0.00197 KA relative to UGCAUGU |
| B5 | 0.00577 KA relative to UGCAUGU |
| B6 | 0.0169 KA relative to UGCAUGU |
| B7 | 0.0126 KA relative to UGCAUGU |
| B8 | 0.00886 KA relative to UGCAUGU |
| B9 | 0.0202 KA relative to UGCAUGU |

Reference: PMC9911399, “Two distinct binding modes provide the RNA-binding protein RbFox with extraordinary sequence specificity”
